From publication PMC12136788
The list shows a part of the results.

T1: UNK ZnF1-6 (called full-length) (human, UniProt Q9C0B0 30-357)
T1 sequence: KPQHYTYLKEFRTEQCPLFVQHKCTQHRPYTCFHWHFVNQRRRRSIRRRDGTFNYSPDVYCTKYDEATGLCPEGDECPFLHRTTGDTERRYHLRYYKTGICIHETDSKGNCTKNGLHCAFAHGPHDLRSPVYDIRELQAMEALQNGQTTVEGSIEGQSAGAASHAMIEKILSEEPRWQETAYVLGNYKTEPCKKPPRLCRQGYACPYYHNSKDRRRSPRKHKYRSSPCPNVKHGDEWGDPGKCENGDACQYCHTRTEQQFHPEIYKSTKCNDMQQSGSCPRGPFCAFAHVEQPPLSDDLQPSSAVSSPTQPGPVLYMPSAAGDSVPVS

B1: chr3:98799561:98799662:-|CDS|ENSG00000057019|msi1|FALSE|unique (ssRNA)
RNA: GGGAGUUCUACAGUCCGACGAUCUUCAGUUGGUCAGCCCUCCACAUCCACUUUCAAGGCUACGGGGAACCAACCUCCCCCACUAGUGGGAACUUACAAUACACUUCUCUCCAGGACUGACAGCUGCUCCUCAGCCCAGGCCCACAACAGAGGAUUGAGCAUCA
B2: chr12:51291590:51292344:-|CDS|ENSG00000110934|control|control|control (ssRNA)
RNA: GGGAGUUCUACAGUCCGACGAUCUUCACCCACCAGCCCUAGGGCCUCCUUGGGGACUGGGACUGCAAGUCCUAGGACCUCCCUAGAGGUCUCUCCUAAUCCAGAACCACCAGAGAAGCCAGUAAGAACUCCUGAGGCCAAAGACAACAGAGGAUUGAGCAUCA
B3: chr17:57839567:57839672:-|3pUTR|ENSG00000181610|unk|FALSE|unique (ssRNA)
RNA: GGGAGUUCUACAGUCCGACGAUCGGGUUGUCACAAAGCUCAGUAUCAUGGUUUGACAGAAGCAGUUAUGUGAACUUUUAUGUUAGGACAUUACUAAAUAAAGAAUUCCCUAGCUGCUUAUAAAGUAAAUUUACUUUGAAUUGUCAACAGAGGAUUGAGCAUCA
B4: chr6:35869508:35869609:-|CDS|ENSG00000096063|unk|total|mutant (ssRNA)
RNA: GGGAGUUCUACAGUCCGACGAUCGACACCAUGGUGUGCCAGUCUUCCUCAACUGCCGGUCAGUCAUUCAGUGAACAACACAUCCGCCAACUUCAAGAAAGCAUUCGGGCAGAGAUACCCUGUGAAGAUGAACAAGAGCAAGAACAACAGAGGAUUGAGCAUCA
B5: ENSG00000181852:stop:overlap|stop_codon|ENSG00000181852|stop_codon|NA|stop_codon (ssRNA)
RNA: GGGAGUUCUACAGUCCGACGAUCGUGUCAACCCCAACCUUCAGAACCUGGAGGAGACAAUUGAAUACAACGAGAUCCUAGAGUAGCUUACAACCCAGAGAAGAGGAGGCAGAGUGCAAGUCCAGGAAAGUGAUCUCUAAAAUGCAACAGAGGAUUGAGCAUCA
B6: chr4:48498090:48498191:-|3pUTR|ENSG00000075539|msi1|total|mutant (ssRNA)
RNA: GGGAGUUCUACAGUCCGACGAUCAGGAAGCCUGAAGACUGACUACCAAAACAUGCAAUAUACUUAUUCACUGUCUAAGUCUGCCGUAUAACAUGAACUGGAGUCUCUAUCCUUUUCUAAAAUCGCAUUUUGUAAGAAAAGAAACAACAGAGGAUUGAGCAUCA
B7: chr12:46358264:46358384:-|3pUTR|ENSG00000134294|msi1|FALSE|unique (ssRNA)
RNA: GGGAGUUCUACAGUCCGACGAUCAAUGUGAUCUAGUGUAAUGGAAGACCUUUGAGAACCUGGGUGUAUUAACUUUGUGUAUAUAGUGUAAAUAUCCCCACUGUACUGUUAGAGGCCAACAAUUCUAGUAUGGCUUGUUGGCAACAACAGAGGAUUGAGCAUCA
B8: chr17:44319658:44319728:-|3pUTR|ENSG00000013306|msi1_unk|total|mutant (ssRNA)
RNA: GGGAGUUCUACAGUCCGACGAUCUCCCUGUGUUUGCUGCCGCUGGGCAUGUCUCCAGGAACCAAGAAGCCCUCAGCCUGGUGCCGUCUCCCUGACCCUUGUUAAUUCCUUAAGUCUAAAGAUGAUGAACUUCUGCCUGGUGCCCAACAGAGGAUUGAGCAUCA
B9: ENSG00000124766:be:win_1151|CDS|ENSG00000124766|bound_else_gene|NA|bound_elsewhere_windowed (ssRNA)
RNA: GGGAGUUCUACAGUCCGACGAUCCCCACUCCUCCUCUUCCUCCUCCUCGGGCUCCUCGUCCUCCGACGACGAGUUCGAAGACGACCUGCUCGACCUGAACCCCAGCUCAAACUUUGAGAGCAUGUCCCUGGGCAGCUUCAGUUCAACAGAGGAUUGAGCAUCA
B10: chr5:103029089:103029184:+|3pUTR|ENSG00000145730|msi1_unk|FALSE|overlapping (ssRNA)
RNA: GGGAGUUCUACAGUCCGACGAUCAACCAAGCUUUGAUUUAGAUUGAGUAAGAUUUACCCAGAAUGUCAGAUUCCUUUCCCUUUAGCACGUUUAAAGUUCUGUGUAUUUAAUUGUAAACUGUACUAGUCUGUGUGGGACUGUACCAACAGAGGAUUGAGCAUCA
B11: chr13:108210595:108210700:-|CDS|ENSG00000174405|unk|FALSE|unique (ssRNA)
RNA: GGGAGUUCUACAGUCCGACGAUCUCAGCACUUGAGCAAAAGUGGCUUAUACGGAUGAUCAUAAAGGAUUUAAAGCUUGGUGUUAGUCAGCAAACUAUCUUUUCUGUUUUUCAUAAUGAUGCUGCUGAGUUGCAUAAUGUCACUCAACAGAGGAUUGAGCAUCA
B12: ENSG00000070961:be:win_1201|CDS|ENSG00000070961|bound_else_gene|NA|bound_elsewhere_windowed (ssRNA)
RNA: GGGAGUUCUACAGUCCGACGAUCAAAAGACCAUGGCUUGCUGAGUGCACACCAAUUUAUAUACAAUACUUUGUGAAGUUCUUCAUUAUUGGAGUUACAGUUUUAGUGGUCGCAGUGCCAGAAGGUCUUCCACUUGCAGUCACGCAACAGAGGAUUGAGCAUCA
B13: ENSG00000168556:stop:overlap|stop_codon|ENSG00000168556|stop_codon|NA|stop_codon (ssRNA)
RNA: GGGAGUUCUACAGUCCGACGAUCAUAAUGAGAAAACAAUGGACAAAAGUACUGAAAAGACAAAAAAGGAUAGAAGAUCGAGGUAGUAAAGGCCAUCCACAUUUUAAAGGGUUAUUUGUCUUUUAUAUAAUUCGUUUGCUUUCACAACAGAGGAUUGAGCAUCA
B14: chr16:46660370:46660459:-|3pUTR|ENSG00000069329|msi1_unk|FALSE|overlapping (ssRNA)
RNA: GGGAGUUCUACAGUCCGACGAUCAAAAGGAAAUAGCUCACCAUACUCCUUUCCAUGUACAUCCAGUGAGGGUUUUAUUACGCUAGGUUUCCCUUCCAUAGAUUGUGCCUUUCAGAAAUGCUGAGGUAGGUUUCCCAUUUCUUACAACAGAGGAUUGAGCAUCA

Target: T1, UNK ZnF1-6 (called full-length)
Test: nsRBNS (natural sequence RNA bind-n-seq); RBNS binding buffer (assumed for nsRBNS): 25 mM Tris pH 7.5, 150 mM KCl, 3 mM MgCl2, 0.01% Triton X-100, 500 ug/ml BSA, 20 U/ml SUPERase-In, 4 C; UNK is unkempt and MSI1 is Musashi-1; names of the RNAs are library labels; protein concentration not given here; high values mean tight binding

| Binder | binding signal |
| --- | --- |
| B1 | 0.692 enrichment R |
| B2 | 0.656 enrichment R |
| B3 | 0.74 enrichment R |
| B4 | 0.477 enrichment R |
| B5 | 0.976 enrichment R |
| B6 | 0.315 enrichment R |
| B7 | 0.395 enrichment R |
| B8 | 1.51 enrichment R |
| B9 | 0.877 enrichment R |
| B10 | 1.16 enrichment R |
| B11 | 0.311 enrichment R |
| B12 | 0.727 enrichment R |
| B13 | 0.601 enrichment R |
| B14 | 0.4 enrichment R |
